From patent US20240327509A1, “HUMAN CXCLI6 ANTIBODIES AND THE USE THEREOF” (CELLUS,INC., priority 2021, published 2024) come the findings set out here.

Positions count from the first letter of the chain named.

Assay [1] deals with T1, Recombinant human CXCL16 (rhCXCL16) protein (Homo sapiens, UniProt Q9H2A7).
T1 sequence (Q9H2A7 30-118): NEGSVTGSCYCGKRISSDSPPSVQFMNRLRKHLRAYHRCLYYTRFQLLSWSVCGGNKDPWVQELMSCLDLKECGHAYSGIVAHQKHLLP
Description: bio-light interferometry (ForteBio) binding analysis. Particulars: for ka / kd: antibody captured on biosensor, rhCXCL16 100 nM, 25° C., ND = signal was not detectable; for binding to human CXCL16: in words. As for the experimental part: The binding characteristics of 25 CXCL16 antibodies were analyzed using the bio-light interferometry (ForteBio). All antibodies were diluted in freshly prepared running buffer. Antibodies were immobilized onto the surface of a series of biosensors using the capture methods at 0.3 μg/mL. Recombinant human CXCL16 (rhCXCL16) protein (100 nM) was passed over the surface to generate a binding response for 10 minutes. Binding data for the antibody and antigen interactions were collected at 25° C. on the biosensors. Then, the running buffer was passed for 10 minutes to dissociate them. The association constant (ka) and the dissociation constant (ka) were observed, and the equilibrium binding constant (KD) was calculated. […] R2: The value indicating how well the fit and experimental data correlate; X^2: The measure of error between the experimental data and fitted line.

The target in assay [2] is T2, recombinant human CXCL16 antigen (Homo sapiens, UniProt Q9H2A7).
T2 construct: purchased R&D systems 976-CX
T2 sequence (Q9H2A7 30-118 limits assumed): T1 sequence (Q9H2A7 30-118)
Nature of the assay: protein-based ELISA on immobilized human CXCL16 antigen. The class given is binding. As to conditions: antibody 0.001~10 nM; versus control IgG antibody; FIG. 1A. As for the experimental part: To further characterize the binding affinity of selected 6 of CXCL16 antibodies, the protein-based ELISA was performed. The recombinant human CXCL16 antigen (976-CX, R&D systems, USA) was immobilized onto 96-well plates and incubated for 2 hours at room temperature. Non-specific binding sites were blocked by incubating with 1% BSA in PBS overnight at 4° C. Plates were then washed with PBS. Humanized CXCL16 antibodies at various concentrations (0.001˜10 nM) were incubated with the immobilized antigen for 2 hours at room temperature. After the incubation, the plates were washed, incubated with HRP-labeled anti-human IgG antibody (W4031, Promega, USA) for 0.5 hours, and developed using the substrate solution (DY008B, R&D systems).
For orientation: An ELISA detects its analyte on a solid surface through an enzyme-linked reagent.

Assay [3] deals with CXCR6-overexpressed CHO-K1 cells. Nature of the assay: transwell migration assay toward rhCXCL16. In kind it is cell-based. As to conditions: 100 ng/mL rhCXCL16 in lower chamber, 4-5 h; FIG. 2A. As for the experimental part:
CXCR6 is a receptor for chemokine CXCL16 and cells harboring CXCR6 migrate in response to CXCL16. Therefore, to evaluate the activity of CXCL16 antibody in inhibiting cell migration induced by CXCL16 and CXCR6 interaction, transwell migration assays were performed. A polycarbonate membrane with a pore size of 8 μm (Corning, NY, USA) was pre-coated with gelatin, and the membrane was placed into a 24-well plate. The membrane separated each well into an upper chamber and a lower chamber. The upper chamber was plated with CXCR6-overexpressed CHO-K1 cells. The lower chamber was filled with media containing 100 ng/mL rhCXCL16. After 4-5 h, the lower chamber was stained with 1% crystal violet solutions and the numbers of migrated cells on the lower chamber were counted.

Assay [4] concerns thyroid cancer cell BHP10-3M. Description: transwell migration assay toward co-CM. In kind it is cell-based. As to conditions: antibody 10-100 μg/mL, 6 hours, FIG. 2B. As for the experimental part:
To evaluate that blockage of CXCL16 could lead to inhibit cancer cell migration. transwell migration assay was performed. For assay, 8 μm pore-size polycarbonate membrane (Corning, NY, USA) was used. A polycarbonate membrane with a pore size of 8 μm (Corning, NY, USA) was pre-coated with gelatin, and the membrane was placed into a 24-well plate. The membrane separated each well into an upper chamber and a lower chamber. CXCL16 antibody (at 10-100 μg/mL) was preincubated in the upper and lower chamber for 0.5 hours. The upper and lower chamber were plated with thyroid cancer cell BHP10-3M (1×10^5/100 μL) and co-culture conditioned medium (0.5× co-CM), respectively.
The co-CM is the conditioned medium obtained from co-culture of BHP 10^-3M and THP-1 cells. The BHP10-3M cells were seeded on 100 mm culture dishes with 3×10^6 cells in 10 ml of RPMI1640 medium. After 24 hours incubation, THP-1 cells were seeded additionally with 6×10^6 cells. After then, 10 μL of 5 mM PMA stock solution (V1171, Promega) to 10 mL of RPMI medium to make 5 μM PMA. It induced the macrophage differentiation. After 24 hours incubation, the conditioned medium obtained from the co-culture of thyroid cancer cells and macrophages (co-CM) were collected, and it was rich in CXCL16. After 6 hours of incubation of thyroid cancer cells in the upper chamber and co-CM in the lower chamber, the lower chamber was stained with 1% crystal violet solutions and the numbers of migrated cells were counted. […] Sec FIG. 2B.

The test system of assay [5] is Akt phosphorylation. Description: rhCXCL16-induced Akt phosphorylation in cancer cells (western blot). The class given is cell-based. As to conditions: 100 ng/ml rhCXCL16 30 minutes, 10 μg/mL antibody; thyroid, breast and prostate cancer cells; FIG. 3. As for the experimental part: The CXCL16-CXCR6 interaction activates intracellular Akt signaling pathway, which promote cell migration. This experiment was designed to evaluate the ability of CXCL16 antibodies in blocking the Akt signaling induced by the CXCL16-CXCR6 interaction. Cancer cells were treated with 100 ng/ml of rhCXCL16 (976-CX, R&D systems) for 30 minutes in the presence of 10 μg/mL of humanized CXCL16 antibody (HC4LC1, HC5LC1. HC5LC2. HC5LC3. or HC5LC5) or control antibody (MAB976. R&D Systems, Minneapolis, MN). Cell lysates were harvested. Anti-pAkt (dilution ratio 1:1000, #9102; Cell Signaling), anti-Akt (dilution ratio 1:1000, #4370; Cell Signaling), and anti-β actin antibodies (dilution ratio 1:10,000, STJ91464, St John's laboratory, UK) were used. […] HCSLC2.
In general terms: A western blot detects proteins with antibodies after separation by electrophoresis.

The test system of assay [6] is Human CD11b+bone marrow myeloid cells. Nature of the assay: two-chamber in vitro model of bone metastasis, cell migration. Particulars: FIG. 8B. In kind it is cell-based. As for the experimental part:
In some embodiments, the CXCL16 antibodies disclosed herein inhibit bone metastasis of cancer cells. The antibodies activity in inhibiting bone metastasis is assessed with methods well-known in the art. One exemplary method uses a two-chamber system mimicking the metastatic niche of bone. In brief, an upper chamber, which is a mesh insert, is suspended within a lower chamber. The lower chamber contains cancer cells/whole marrow cell co-cultures and CXCL16 enriched fluid, mimicking the microenvironment of the metastatic niche of bone. The upper chamber harbors pre-osteoclasts from the bone marrow (for example, Human CD11b+bone marrow myeloid cells). Typically, pre-osteoclasts differentiate into osteoclasts, which support tumor formation in the metastatic niche of the bone. Inhibiting pre-osteoclasts migration thus could effectively block tumor progression in the metastatic niche of the bone, i.e., inhibiting bone metastasis. After contacting the cells in the upper chamber with the CXCL16 antibody, cells retained in the upper chamber (aka, the mesh of the insert) are counted; the number of these cells positively correlates with the ability of the antibodto inhibitng cell recruitment into the metastatic niche:
A two-chamber system was set up to resemble the metastatic niche of bone. A lower chamber contains a conditioned medium (CM) of cancer cells/whole marrow cell co-cultures (called co-CM), which is CXCL16 enriched. CM from cancer cell cultures alone is used for control, referred to as single-CM. Single-CM contains negligible concentrations of CXCL16. An upper chamber (using insert) harboring cells that can be recruited into the metastatic chambers. Human CD11b+bone marrow myeloid cells were treated with the CXCL16 antibodies for one hour, and the treated cells were added to upper chamber. After 4 hr, the insert (aka. the upper chamber) was harvested and cells in the insert were stained and the ability of the CXCL16 antibody in inhibiting cell recruitment into the metastatic niche were assessed.

B1: HC4LC1: humanized CXCL16 antibody, VH SEQ ID NO: 4, VL SEQ ID NO: 6; heavy chain SEQ ID NO: 41, light chain SEQ ID NO: 43 (antibody)
heavy: EVQLVESGGGLVKPGGSLRLSCAASGFTFSNAVMNWVRQAPGKGLEWVARIRTKPNNYATFYADSVKGRFTFSRDDSKNTLYLQMNSLKTEDTAVYYCTAWTTEGIYWGQGTTVTVSS[human IgG1 constant region left out]
light: DIVMTQSPDSLAVSAGETVTINCKSSQSLLYSGNQKNYLAWYQQKPGQSPKLLIYWASTRQSGVPDRFSGSGSGTDFTLTISSVQAEDVAVYYCQQYYDTPWTFGGGTKVEIKRTVAAPSVFIFPPSDEQLKSGTASVVCLLNNFYPREAKVQWKVDNALQSGNSQESVTEQDSKDSTYSLSSTLTLSKADYEKHKVYACEVTHQGLSSPVTKSFNRGEC
Regarding B1, in assay [1], the ka is listed as 1.74E+04 m^−1s^−1, the kd came to 1.9e-05 s⁻¹ and the “binding to human CXCL16” value was “strong binding”. Also, the “binding affinity to human CXCL16 (ELISA)” value in assay [2] is given as “significantly higher than a control IgG antibody”. The “migration of CXCR6-overexpressed CHO-K1 cell from upper chamber to the lower chamber” value in assay [3] was “inhibited the migration”. Moreover, the “cell migration into the lower chamber of BHP10-3M cells” value (“cell migration into the lower chamber” for short) in assay [4] is listed as “decreased the migration”. Besides, the “Akt phosphorylation activated by rhCXCL16” value in assay [5] was “abrogate the Akt phosphorylation”.

B2: HC5LC1: humanized CXCL16 antibody, VH SEQ ID NO: 5, VL SEQ ID NO: 6; heavy chain SEQ ID NO: 42, light chain SEQ ID NO: 43 (antibody)
heavy: B1 heavy with K13Q, R19K, P41S, L81A, V95M, T113L
light: B1 light
As to B2, in assay [1], the ka is listed as 1.83E+04 m^−1s^−1, the kd was determined as 5.97e-05 s⁻¹ and the “binding to human CXCL16” value is given as “strong binding”. The “binding affinity to human CXCL16 (ELISA)” value in assay [2] is listed as “significantly higher than a control IgG antibody”. Also, in assay [3], the “migration of CXCR6-overexpressed CHO-K1 cell from upper chamber to the lower chamber” value is listed as “inhibited the migration”. For the same molecule, the “cell migration into the lower chamber” value in assay [4] is listed as “decreased the migration”. Besides, the “Akt phosphorylation activated by rhCXCL16” value in assay [5] is recorded as “abrogate the Akt phosphorylation”. The “chemotaxis and migration (migration of CD11b+ cells)” value in assay [6] was “inhibits chemotaxis and migration”.

B3: HC5LC3: humanized CXCL16 antibody, VH SEQ ID NO: 5, VL SEQ ID NO: 8; heavy chain SEQ ID NO: 42, light chain SEQ ID NO: 45 (antibody)
heavy: B1 heavy with K13Q, R19K, P41S, L81A, V95M, T113L
light: DIQMTQSPSSLSASVGDRVTITCKSSQSLLYSGNQKNYLAWYQQKPGQSPKLLIYWASTRQSGVPDRFSGSGSGTDFTLTISSLQAEDFATYYCQQYYDTPWTFGGGTKVEIKRTVAAPSVFIFPPSDEQLKSGTASVVCLLNNFYPREAKVQWKVDNALQSGNSQESVTEQDSKDSTYSLSSTLTLSKADYEKHKVYACEVTHQGLSSPVTKSFNRGEC
For the molecule B3, in assay [1], the ka was 2.64E+04 m^−1s^−1, the kd is 0.000635 s⁻¹ and the “binding to human CXCL16” value is “strong binding”. In assay [2], the “binding affinity to human CXCL16 (ELISA)” value is given as “significantly higher than a control IgG antibody”. The “migration of CXCR6-overexpressed CHO-K1 cell from upper chamber to the lower chamber” value in assay [3] is on record as “inhibited the migration”. In addition, the “cell migration into the lower chamber” value in assay [4] is recorded as “decreased the migration”. In addition, the “Akt phosphorylation activated by rhCXCL16” value in assay [5] is recorded as “abrogate the Akt phosphorylation”.

B4: HC5LC2: humanized CXCL16 antibody, VH SEQ ID NO: 5, VL SEQ ID NO: 7; heavy chain SEQ ID NO: 42, light chain SEQ ID NO: 44 (antibody)
heavy: B1 heavy with K13Q, R19K, P41S, L81A, V95M, T113L
light: B1 light with D9S, A15L, V19A, S49P, S69T, S73A, V89L, V91I
For the molecule B4, in assay [1], the ka is listed as 2.43E+04 m^−1s^−1, the kd came to 6.07e-05 s⁻¹ and the “binding to human CXCL16” value was “strong binding”. Further, in assay [2], the “binding affinity to human CXCL16 (ELISA)” value is “significantly higher than a control IgG antibody”. For the same molecule, in assay [3], the “migration of CXCR6-overexpressed CHO-K1 cell from upper chamber to the lower chamber” value is recorded as “inhibited the migration”. For the same molecule, the “cell migration into the lower chamber” value in assay [4] was “decreased the migration”. For the same molecule, the “Akt phosphorylation activated by rhCXCL16” value in assay [5] is “abrogate the Akt phosphorylation”. Further, the “chemotaxis and migration (migration of CD11b+ cells)” value in assay [6] is “inhibits chemotaxis and migration”.
